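Step 1: Grow cells in 96-well plates. Step 2: Expose to compound for 48 hours at 5 concentrations. Step 3: Interpolate endpoints linearly; if unreached, use highest concentration. GI50: concentration for 50% inhibition of growth.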 Activity calls are given as the source filed them. No stated cut-off is given here; in the data, active = GI50 up to about 1.1 µM and inactive = higher.
Test system: NCI-H322M
Assay: NCI anticancer screen, dose series, 48 h

Structure (SMILES) | GI50
COc1cc(C=O)ccc1Oc1nnnn1-c1ccccc1 | inactive: > 100 µM
NC1(P(=O)(O)O)CCCCC1 | inactive: > 100 µM
CSc1nnnc2ccccc12 | inactive: > 100 µM
CCN(CC)Cc1cc(Nc2c3ccccc3nc3c4ccccc4n(C)c23)cc(CN(CC)CC)c1O | inactive: 4.01 µM
Nc1ccc(C(=O)O)cc1.Nc1nc(N)c2nc[nH]c2n1 | inactive: 17.6 µM
Oc1nc(S)nc2c1CN(CCCN1CCOCC1)CN2 | inactive: > 100 µM
N=C(N)N/N=C/c1c(-c2ccc([N+](=O)[O-])cc2)nc2sc(Cl)cn12 | active: 0.733 µM
CC(C)(C)C(=O)OC12/C(=N/O)CCCCCC1c1ccccc12 (stereo not given) | inactive: 16.6 µM
C=CCCCCCCCCCOC1C=CC(O)C(CO)O1 (stereo not given) | inactive: > 100 µM
NNC(=O)CNC(=O)c1ccc(Cl)cc1Cl | inactive: > 100 µM
CCCCCCN(CCCCCC)CCC(=O)c1ccc2cc(Br)c3ccccc3c2c1 | inactive: > 100 µM
Cc1ccc(NC(=O)c2cccc(OP(=O)(Nc3ccc(C)cc3)Nc3ccc(C)cc3)c2)cc1 | inactive: 30.3 µM
CCCCCCCC(=O)OCC1OC(OC)C(NC(=O)N(CCCl)N=O)C(O)C1O (stereo not given) | inactive: 27.7 µM
CCOC(=O)c1c[nH]c(C(=O)C=[N+]=[N-])c1C1CCN(CC)C1=S (stereo not given) | inactive: > 100 µM
Cc1cc(-c2ccc(C(=O)C(Cl)(Cl)Cl)[nH]2)on1 | inactive: 25.9 µM
Cc1cc(C)c2c(=O)n(CN3CCC(O)(c4ccccc4)CC3)sc2n1 | inactive: > 100 µM
ClC1(c2ccccc2)c2ccc(Br)cc2-c2cc(Br)ccc21 | inactive: 17.9 µM
O=C1c2ccccc2C(=O)c2sc(Nc3ccc(Cl)cc3)nc21 | inactive: 6.32 µM
N#Cc1c(N2CCCC2)nsc1Nc1ccccc1 | inactive: > 100 µM
CC(=O)NNc1nc(C)c(C(/C=C/c2ccccc2O)=N/NC(=O)c2ccncc2)s1 | inactive: > 100 µM
CC(C)(C)OC(=O)NCCC(=O)NC1(c2cc3ccccc3s2)CCCCC1 | inactive: 19.9 µM
O=C1c2ccccc2C(=O)N1CC#CCO | inactive: > 100 µM
CC(C)NC(=O)OCc1c(COC(=O)NC(C)C)n(C)c2c1ccc1sccc12 | inactive: 20 µM

Structure (SMILES) | GI50
CCOC(=O)c1cc(C2CCN(c3ccccc3)C2=O)c(C(=O)/C=C(/C)N)[nH]1 (stereo not given) | inactive: 45.8 µM
O=C(c1ccsc1)c1cc2c(s1)C(=O)c1ccsc1C2=O | active: 0.527 µM
COc1ccc(C(=O)C(C(=O)C(=O)Nc2ccc(Cl)c(Cl)c2)c2ccc(OC)cc2)cc1 (stereo not given) | inactive: > 100 µM
Cc1cccc(C)c1NC(=O)/C(Cc1nc2ccc([N+](=O)[O-])cc2nc1O)=N\NC(N)=O | inactive: 90.8 µM
O=c1[nH]c2cc(Cl)ccc2nc1/C(=N/Nc1ccccc1)C(O)c1ccco1 (stereo not given) | inactive: > 100 µM
COc1cc2cccc(N)c2cc1OC | inactive: > 100 µM
COC(=O)C1=C(O)C(C(=O)OC)[C@]2(O)[C@H](C(=O)OC)[C@H]1C[C@@H](c1ccc(C(F)(F)F)cc1)[C@H]2C(=O)OC (stereo not given in full) | inactive: 2.84 µM
c1ccc(C2SCC3=Nc4ccccc4CN32)cc1 (stereo not given) | inactive: 24.3 µM
CC(Oc1ccc2cc(C(=O)c3ccccc3)c(=O)oc2c1)C(=O)O (stereo not given) | inactive: > 100 µM
O=[N+]([O-])c1ccc(NC(=S)N/N=C(\c2ccccc2)c2ccccn2)cc1 | inactive: 1.29 µM
CSC1SCC2C(=O)N(C)C3(CC3C)C(=O)OCC(NC(=O)c3nc4ccccc4cc3O)C(=O)NC(C)C(=O)N(C)C1C(=O)N(C)C1(CC1C)C(=O)OCC(NC(=O)c1nc3ccccc3cc1O)C(=O)NC(C)C(=O)N2C (stereo not given) | active: < 0.0001 µM
c1ccc(CSCCC(SCc2ccccc2)SCc2ccccc2)cc1 | inactive: > 10 µM
CC1=NN(c2cccc(S(=O)(=O)O)c2)C2(C1)SCC(=O)N2c1nc2ccccc2s1 (stereo not given) | inactive: > 100 µM
CCOC(=O)C#Cc1ccc(C#CC(=O)OCC)cc1 | inactive: 5.09 µM
CC1c2[nH]c3ccccc3c2CCN1O (stereo not given) | inactive: > 100 µM
CC[N+]1(C)CCC(O)(c2ccc(Cl)cc2)C(C(=O)c2ccc(Cl)cc2)C1 (stereo not given) | inactive: 23.1 µM
CC(=O)c1c(N=[N+]=[N-])c2cccc3c2n(c1=O)CCC3 | inactive: 24.5 µM
Cc1cc(Br)ccc1/N=N/C1C(=O)ON=C1c1ccccc1 (stereo not given) | inactive: > 100 µM
COC(=O)c1ccc(Cc2cc(Cc3ccc(C(=O)OC)cc3)cc(Cc3ccc(C(=O)OC)cc3)c2)cc1 | inactive: > 25 µM
CC(=O)OCC(OC(C)=O)C(OC(C)=O)C(OC(C)=O)C(C=NN(C(C)=O)S(=O)(=O)c1ccc(/C=C2\NC(=O)NC2=O)cc1)OC(C)=O (stereo not given) | inactive: > 100 µM
CC(=O)OCC1OC(n2c(=S)n(-c3ccccc3)c(=O)c3cc(Br)ccc32)C(OC(C)=O)C1OC(C)=O (stereo not given) | inactive: > 100 µM
CC1(C)CNCC(C)(OCc2ccccc2)C(=O)NC(C)(C)CNCC(C)(OCc2ccccc2)C(=O)N1 (stereo not given) | inactive: > 10 µM

— ChEMBL document CHEMBL1201862, “PubChem BioAssay data set” (2004)
